PubChem BioAssay AID1569 (National Center for Advancing Translational Sciences (NCATS), 2009)
The shares of active, inactive and inconclusive entries below differ from those in the screen. Where the call is inconclusive, the potency comes from a doubtful curve fit. The source made the active and inactive calls. The call rests on the fitted dose curve; in most records, active means well fitted inhibition curve with a large enough effect; inconclusive means small, poorly fitted or top-dose-only effect, or effect the other way, or another doubt; inactive means no such curve, though single readings can be large or run the other way.
Potency means the concentration at half of the fitted maximal effect; tags describe the fitted curve by direction and shape.

Assay: Confirmation Concentration-Response Assay for lipid storage modulators; further: nearly all actives have a fitted effect of over 80% in size;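 on activity change, negative = inhibition: -100% = full block of lipid deposition by 20 µM Triacsin C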
Settings: Drosophila S3 cells, lipid droplet BODIPY/CellTracker ratio, 18-24 h; activity change, negative = inhibition: at 46.1 µM (top of the series)
Procedure, shortened: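 Cells at 5,000/well received compound as a titration plus oleic acid (added as 400 uM solution) and were incubated 18–24 h at 24 °C. BODIPY 493/503 lipid signal and CellTracker Red cell count were read by 488-nm laser-scanning cytometry. Activity was normalised to 20 uM Triacsin C.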
With `CCC(C)(C)NC(=O)C(c1ccc(OC)cc1)N(CCOC)C(=O)CCC(=O)Nc1nccs1` (centres undefined) the Potency was active: 19.9 µM.
In the case of `c1ccc2c(c1)OCC(CNc1ncnc3sccc13)O2` (centres undefined), the Potency is reported as active: 0.996 µM.
In the case of `C[C@@H]1NS(=O)(=O)[C@H]2C[C@@H]3C=C[C@]2(O3)[C@H]1OC(=O)c1ccccc1Br`, the “activity change, negative = inhibition” value is reported as inactive: 12.1%.
In the case of `COc1ccc(CCNC(=O)Cn2nnc(-c3ccccc3F)n2)cc1OC`, the Potency is reported as inconclusive: 2.5 µM [falling, full curve].
With `CCC(C)n1c(SCC(=O)NC(=O)Nc2ccc3c(c2)OCCO3)nc2ccccc2c1=O` (centres undefined) the Potency was inconclusive: 0.158 µM [activator, full curve].
With `CC(C)c1ccc(NC(=O)C2CCC(CNC(=O)[C@@H]3Cc4ccccc4CN3)CC2)cc1` (some centres undefined) the Potency was inconclusive: 7.05 µM [activator, full curve].
In the case of `O=C(NCc1cccnc1)Nc1cc(Cl)cc(Cl)c1`, the “activity change, negative = inhibition” value is reported as inactive: 16.6%.
In the case of `Cc1cc(OCCCn2ccnc2)ccc1C(C)C`, the Potency is reported as inconclusive: 9.96 µM [activator, partial curve].
With `CC1CCCCN1C(=O)CSc1nc2ccccc2n1CC(=O)N1CCc2ccccc21` (centres undefined) the Potency was inconclusive: 4.45 µM [activator, full curve].
With `Cc1nn(Cc2ccc(Cl)cc2)c(C)c1NC(=O)c1noc2c1CCc1ccccc1-2` the Potency was inconclusive: 2.23 µM [activator, full curve].
In the case of `COc1ccc(N=Nc2nc(-c3ccccc3)c(-c3ccccc3)[nH]2)cc1`, the Potency is reported as active: 2.5 µM.
With `CCN1CCN(Cc2ccc(NC(=O)c3ccc(C)c(NC(=O)c4c[nH]c5cc(C(F)(F)F)ccc5c4=O)c3)cc2C(F)(F)F)CC1` the Potency was active: 8.88 µM.
With `COc1ccc(CCNC(=O)C(=O)N2CCCC2)cc1OC` the activity change, negative = inhibition was inconclusive: 30.7% [activator].
For `COc1ccc(CCNC(=O)CSc2nc(O)cc(=O)[nH]2)cc1OC`, the “activity change, negative = inhibition” value was inactive: 15.3%.
For `CCOc1ccc(CCNC(=O)COC(=O)c2cccc(S(=O)(=O)N3CCCC3)c2)cc1OCC`, the Potency was inconclusive: 14.1 µM [falling, partial curve, poor fit].
In the case of `Cc1cc(C(=O)NC2CCCc3c2cnn3-c2ccccc2F)nc(C)n1` (centres undefined), the Potency is reported as active: 1.41 µM.
In the case of `Fc1ccc(CNc2ncnc3c2cnn3-c2ccccc2)cc1`, the Potency is reported as inconclusive: 4.45 µM [activator, partial curve].
For `CCOc1ccc(CCNC(=O)c2cc3ccccn3n2)cc1OCC`, the Potency was inconclusive: 0.996 µM [activator, full curve, poor fit].
For `CCOc1ccc(CCNC(=O)COC(=O)c2ccc(S(C)(=O)=O)cc2)cc1OCC`, the “activity change, negative = inhibition” value was inactive: -7.33%.
For `CCOC(=O)C1CCN(C(=O)C2(NC(=O)Nc3ccc(F)cc3F)CCCCC2)CC1`, the Potency was active: 1.77 µM.
In the case of `Cc1cc(C)cc(-n2ncc3c2CCCC3NC(=O)c2csnn2)c1` (centres undefined), the Potency is reported as active: 0.0112 µM.
For `COc1cc(OC)cc(-c2cc3nc4c(c(N5CCN(c6ncccn6)CC5)n3n2)CCCC4)c1`, the activity change, negative = inhibition was inconclusive: 213% [activator].
For `COc1cccc(Cn2cnc3c(NS(=O)(=O)c4ccc(Cl)cc4)c(C)c(C)cc32)c1`, the Potency was inconclusive: 2.5 µM [activator, full curve].
For `CCOc1ccc(C(=O)Nc2ccccc2N2CCN(C(=O)c3ccccc3)CC2)cc1[N+](=O)[O-]`, the Potency was inconclusive: 0.0791 µM [activator, full curve, poor fit].
With `CCOC(=O)c1cc(NC(=O)c2ccoc2C)cc(C(=O)OCC)c1` the Potency was inconclusive: 0.353 µM [activator, full curve].
With `CC(NCC(=O)Nc1ccccc1C(=O)NC1CC1)c1ccc(S(N)(=O)=O)cc1` (centres undefined) the Potency was inconclusive: 0.315 µM [activator, full curve, poor fit].
For `CSCC(=O)NC1CCCc2c1cnn2-c1cc(F)cc(F)c1` (centres undefined), the Potency was active: 2.5 µM.
In the case of `Cc1cccc(-c2ccc3ncnc(NCc4cccc(F)c4)c3c2)c1`, the Potency is reported as inconclusive: 31.5 µM [falling, single point].
For `Cc1ccc(-n2nnnc2-c2cnc3cc4c(cc3c2C)OCO4)cc1`, the Potency was inconclusive: 1.58 µM [activator, full curve].
In the case of `COc1ccc(C)cc1S(=O)(=O)N1CCN(Cc2ccccc2)CC1`, the Potency is reported as inconclusive: 9.96 µM [activator, partial curve].
For `O=C(CSc1cn(CCNC(=O)c2ccc3ccccc3c2)c2ccccc12)NCc1ccco1`, the Potency was inconclusive: 7.91 µM [activator, full curve].
With `CN([C@@H](Cc1ccc(OS(=O)(=O)c2cccc3cnccc23)cc1)C(=O)N1CCN(c2ccccc2)CC1)S(=O)(=O)c1cccc2cnccc12` the Potency was inconclusive: 1.25 µM [activator, full curve].
In the case of `COc1ccc(CCNC(=O)CCc2ccc(S(=O)(=O)NCC(C)C)cc2)cc1OC`, the activity change, negative = inhibition is reported as inconclusive: 30% [activator].
For `COc1ccc(Cn2c(SCC(=O)NCc3ccco3)nc3ccsc3c2=O)cc1`, the Potency was inconclusive: 0.25 µM [activator, full curve].
With `COc1ccc2cc3c(N)nn(C(=O)Cc4ccccc4OC)c3nc2c1` the Potency was inconclusive: 0.141 µM [activator, full curve].
With `OC1(c2cccc(C(F)(F)F)c2)CCN(c2ncnc3c2[nH]c2ccc(F)cc23)CC1` the Potency was active: 7.91 µM.
For `CCOc1ccc(CCNC(=O)COC(=O)Cn2nc(C)c([N+](=O)[O-])c2C)cc1OCC`, the activity change, negative = inhibition was inconclusive: 53.3% [activator].
With `O=C(Nc1ccc(S(=O)(=O)N2CCCC2)cc1)c1ccc(CN2CCc3ccccc3C2)cc1` the Potency was active: 14.1 µM.
For `Cc1cc(C)n(-c2nc(C)nc(NCc3ccccc3)n2)n1`, the Potency was inconclusive: 11.2 µM [activator, partial curve].
